Test [1] deals with T1, Epitope-tagged endogenous PGC-1β (Peroxisome Proliferator-Activated Receptor Gamma, Coactivator 1 Beta) with C-terminal twin Strep2 and triple FLAG tags (human (endogenous in HCT116)) (UniProt Q86YN6).
T1 sequence: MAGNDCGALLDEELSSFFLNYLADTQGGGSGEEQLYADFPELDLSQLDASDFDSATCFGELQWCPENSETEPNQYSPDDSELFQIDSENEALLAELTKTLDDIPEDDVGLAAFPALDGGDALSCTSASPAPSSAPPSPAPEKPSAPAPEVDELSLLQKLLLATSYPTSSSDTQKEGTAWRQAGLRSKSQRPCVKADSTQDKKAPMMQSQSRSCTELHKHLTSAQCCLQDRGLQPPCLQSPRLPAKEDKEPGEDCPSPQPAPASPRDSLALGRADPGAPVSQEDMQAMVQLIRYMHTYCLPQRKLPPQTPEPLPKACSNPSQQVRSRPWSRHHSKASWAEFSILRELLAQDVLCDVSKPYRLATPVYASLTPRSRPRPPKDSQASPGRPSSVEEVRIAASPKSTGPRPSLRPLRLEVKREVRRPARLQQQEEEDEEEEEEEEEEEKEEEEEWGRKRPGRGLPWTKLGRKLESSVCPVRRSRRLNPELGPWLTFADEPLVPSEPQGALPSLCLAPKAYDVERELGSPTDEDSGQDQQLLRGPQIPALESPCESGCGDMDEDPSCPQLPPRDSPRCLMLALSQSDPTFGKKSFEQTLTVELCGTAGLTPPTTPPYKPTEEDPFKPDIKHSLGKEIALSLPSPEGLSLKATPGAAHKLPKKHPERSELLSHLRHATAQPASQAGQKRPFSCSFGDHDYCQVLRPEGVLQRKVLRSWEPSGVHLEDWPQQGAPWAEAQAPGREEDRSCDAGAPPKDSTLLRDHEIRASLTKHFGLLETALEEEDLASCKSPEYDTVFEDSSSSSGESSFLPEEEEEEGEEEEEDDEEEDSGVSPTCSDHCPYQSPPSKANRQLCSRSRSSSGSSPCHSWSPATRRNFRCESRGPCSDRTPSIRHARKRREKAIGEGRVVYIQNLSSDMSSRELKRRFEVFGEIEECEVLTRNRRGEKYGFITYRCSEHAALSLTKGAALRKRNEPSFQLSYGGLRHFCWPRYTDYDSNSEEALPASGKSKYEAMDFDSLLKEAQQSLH
Description: co-IP; HCT116 cells with epitope-tagged endogenous PGC-1β lysed in RIPA buffer (1% Triton X-100); precipitated overnight at 4 °C on magnetic FLAG beads (eluted with 3X-FLAG peptide) or on MagStrep type3 XT beads (eluted with 50 mM biotin); eluates immunoblotted for PGC-1β and ERRα. (In general: A western blot detects proteins with antibodies after separation by electrophoresis.)

The target in test [2] is T2, PGC-1β AREAA mutant (LRELL → AREAA in motif #3) (human) (UniProt Q86YN6).
T2 sequence: T1 sequence with L343A, L346A, L347A
The experiment in a line: co-IP; HCT116 (and T84 for wild type and AREAA) cells expressing N-terminally 3xFLAG twin Strep2 tagged PGC-1β, wild type or mutant, from the AAVS1 locus; precipitated by the FLAG or the Strep2 epitopes in separate experiments, eluted with triple FLAG peptide or 50 mM biotin; eluates immunoblotted for PGC-1β and ERRα.

For test [3], the target named is T3, Wild type dual epitope tagged PGC-1β (N-terminal triple FLAG and twin Strep2), doxycycline inducible (human) (UniProt Q86YN6).
T3 sequence: T1 sequence
The description is as above.

Test [4] addresses T4, PGC-1β triple mutant, Only LxxLL motif #2 (motifs 1, 3 and 4 inactivated) (human) (UniProt Q86YN6).
T4 sequence: T1 sequence with L92A, L93A, L96A, L343A, L346A, L347A, L664A, L665A, L668A
The test is described as above.

For test [5], the target named is T5, PGC-1β LAALL mutant (LRELL → LAALL in motif #3) (human) (UniProt Q86YN6).
T5 sequence: T1 sequence with R344A, E345A
The test is described as above.

This passage reports binding results from paper PMC9562873.

Where a chain is given by its changes, count along the chain named. No constants are given. Whether binding was seen depends on the method and setting. In cells and extracts the contact can be indirect. Some binding calls cover weakened binding; strength is not graded here. For some assays here: Where a sequence is shown, tags or fusion partners need not be part of it.

B1: Estrogen-Related Receptor Alpha (ERRα) (protein, UniProt P11474 1-423)
chain: MSSQVVGIEPLYIKAEPASPDSPKGSSETETEPPVALAPGPAPTRCLPGHKEEEDGEGAGPGEQGGGKLVLSSLPKRLCLVCGDVASGYHYGVASCEACKAFFKRTIQGSIEYSCPASNECEITKRRRKACQACRFTKCLRVGMLKEGVRLDRVRGGRQKYKRRPEVDPLPFPGPFPAGPLAVAGGPRKTAAPVNALVSHLLVVEPEKLYAMPDPAGPDGHLPAVATLCDLFDREIVVTISWAKSIPGFSSLSLSDQMSVLQSVWMEVLVLGVAQRSLPLQDELAFAEDLVLDEEGARAAGLGELGAALLQLVRRLQALRLEREEYVLLKALALANSDSVHIEDAEAVEQLREALHEALLEYEAGRAGPGGGAERRRAGRLLLTLPLLRQTAGKVLAHFYGVKLEGKVPMHKLFLEMLEAMMD
As for B1, the binding entry is listed as “binds” in test [1]; “no binding” in test [2]; “binds” in test [3]; “no binding” in test [4]; “binds” in test [5].
